In PubChem BioAssay AID652104 (National Center for Advancing Translational Sciences (NCATS), 2013):
The campaign covered roughly 410,000 compounds. About 7,200 (1.8%) were called active. Inconclusive means that the source gave no clear call. Such entries were picked first, then a sample of the others. Calls come from the whole dose curve; as a rule, active = well fitted activation curve with a large enough effect; inconclusive = small, poorly fitted or top-dose-only effect, or another doubt; inactive = no such curve, though single readings can be large or run the other way. Potencies of inconclusive entries are doubtful fits and often do not repeat.

assay: qHTS of TDP-43 Inhibitors; conditions: TDP-43 expressing yeast growth rescue, BacTiter-Glo, 24 h; growth rescue (activation): at 46.1 µM (top of the series) unless noted; note: nearly all actives have a fitted effect of over 50% in size; for growth rescue (activation): % of control where 0% means no effect
How it was run: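 Cell-based yeast growth screen: TDP-43 expression induced in galactose, inoculum OD600=0.02 after raffinose pregrowth to mid-log. Read-out BacTiter-Glo luminescence at 24 hr, 30 deg C; inhibition of toxicity seen as signal increase.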
Potency is the fitted concentration of half-maximal effect; tags give direction and shape of the fitted curve.

Growth rescue (activation), inconclusive:
COCCOC(=O)/C(=C/c1ccc(OC(=O)c2ccccc2)cc1)C(C)=O -50.6% [activator], O=C(c1cccs1)c1no[n+]([O-])c1C(=O)c1cccs1 -91.4% [activator]

Growth rescue (activation), inactive:
CCN1CCN(C(=S)Nc2cc(C(=O)OC)ccc2C(=O)OC)CC1 0.0731%, CC1CCN(C(=O)Cn2cc(SCC(=O)NCc3ccccc3Cl)c3ccccc32)CC1 23.2%, COC(=O)c1ccc(C2SCC(=O)N2Cc2ccccc2)cc1 (centres undefined) 23.2%, O=C(Cn1cnc2c(oc3ccccc32)c1=O)Nc1ccccc1C(F)(F)F 0% [at 9.22 µM], Cc1cc(NC(=O)CN2CCCCC2)no1 7.08%, CC1=CCC(C(=O)O)C(C(=O)Nc2nc3ccc(S(C)(=O)=O)cc3s2)C1 (centres undefined) 0.421%, Cn1cc(CCCC(=O)NCc2ccccc2)c2ccccc21 20.4%, COc1ccc(CCNC(=O)c2[nH]c(C)c(C(C)=O)c2C)cc1OC -4.49%, Cc1ccccc1C(=O)Nc1cccc(NC(=O)c2ccccc2[N+](=O)[O-])c1 14.1%, Cc1ccc(CNc2ccc(-c3nc(C(C)C)no3)cc2[N+](=O)[O-])cc1 15.5%, CN(CC(=O)NCc1ccccn1)S(=O)(=O)c1cc(Cl)ccc1Cl -11.8%, Cc1cccc(NC(=O)Cn2c(=O)n(CCC(C)C)c(=O)c3cccnc32)c1 -4.57%, OC(CNCC(c1ccco1)N1CCCCC1)c1ccccc1 (centres undefined) 11.4%, COc1ccc(-c2csc3nc(C)nc(N4CCCCC4)c23)cc1OC 6.41%, CCCCC(=O)Nc1cc(C)c(O)c(-c2nc3ncccc3o2)c1 9.55%, COc1ccc(Cl)cc1NC(=O)c1cc(C)nc2c1c(C)nn2-c1ccccc1 6.88% [at 9.22 µM], COc1ccc(OC)c(-n2nnc3c(sc4nc(C)c(Br)c(C)c43)c2=O)c1 14.9%, COC(=O)[C@@]12C[C@@H](CC(=O)NCc3ccc(OC)c(OC)c3)C(=O)N(CCc3ccc(OC)c(OC)c3)C1=CCC(C)(C)C2 -4.12%, O=C(Nc1ccc(-c2nc3cc(NC(=O)c4ccccc4Cl)ccc3o2)cc1)c1ccccc1Cl -11%

Potency, active:
Cc1ccccc1-c1cc(C(=O)Nc2sc(C)c(C)c2C(N)=O)c2ccccc2n1 22.4 µM, NC(=S)N/N=C/C=C/c1ccccc1 10 µM, COc1ccc(-n2nc([N+](=O)[O-])c(=NCc3ccc4c(c3)OCO4)n2O)cc1 12.6 µM, CCC(CC)C(=O)Nc1cc(-c2cccc(C)c2)nn1-c1ccccc1 12.6 µM, Cc1cc(NCc2ccccn2)n2nc(C)c(-c3ccc(Cl)cc3)c2n1 7.08 µM

Potency, inconclusive:
O=C(c1cc2ccccc2o1)N1CCN(S(=O)(=O)c2cccs2)CC1 35.5 µM [activator, partial curve, poor fit], O=C(OCCCc1cc2ccccc2c(=O)o1)c1ccc(F)cc1 7.08 µM [activator, full curve, poor fit], COc1cccc(NC(=O)Nc2ccc(C(C)(C)C)cc2)c1 12.6 µM [activator, single point], CCN(CC)c1c2c(c(C#N)c3nc4ccccc4n13)CCC2 28.2 µM [activator, single point], CCOC(=O)/C=C/C(=O)OCC(=O)Nc1ccc(Cl)cn1 12.6 µM [activator, partial curve], CCC(=O)Nc1cc(C)c(O)c(-c2nc3ncccc3o2)c1 0.316 µM [activator, full curve], O=C1c2cccc(OCC(=O)N3CCCc4ccccc43)c2CCN1Cc1ccc(F)cc1 15.8 µM [activator, single point], CN(C)c1ccc(C(=O)OCc2cc(=O)n3ccsc3n2)cc1 14.1 µM [activator, single point], Cc1ccc(S(=O)(=O)NC(=O)c2cc(C)n(-c3ccccc3)c2C)cc1 35.5 µM [activator, partial curve], Cc1cc(C)c2cc(C(=O)N3CCC(C(=O)c4ccc(F)cc4)CC3)[nH]c2c1 35.5 µM [activator, single point], Cc1ccc(C)c(N2C(=O)CC(Cc3ccc(Br)cc3)C2=O)c1 (centres undefined) 31.6 µM [activator, single point], C=CCNc1nc(-c2ccc([N+](=O)[O-])cc2)cs1 20 µM [activator, partial curve], CCCn1nnc(NC(=O)C(C)Oc2ccc(Cl)cc2Cl)n1 (centres undefined) 11.2 µM [activator, partial curve], CC(=O)c1ccc(NC(=O)c2noc3c2CCc2ccccc2-3)cc1 0.891 µM [activator, full curve, poor fit], Cc1cccc(OCC(=O)NCc2nc(-c3ccccc3)no2)c1 12.6 µM [activator, single point], CC(=O)c1ccc(N2CCN(C(=O)Cc3ccccc3)CC2)c(F)c1 7.94 µM [activator, partial curve], Cc1ccc(-n2ncc3c(=O)[nH]c(SCC(=O)N4CCC(C)CC4)nc32)cc1C 3.98 µM [activator, partial curve, poor fit], CCSc1nnc(NC(=O)c2cccnc2Cl)s1 20 µM [activator, single point], O=C(CSc1n[nH]c(=O)[nH]c1=O)Nc1ccc2c(c1)C(=O)c1ccccc1C2=O 35.5 µM [activator, single point], Fc1ccc(/C=N/n2c(C3CCCCC3)n[nH]c2=S)cc1 11.2 µM [activator, partial curve], Cc1cc(C)nc(SCc2nnc(SCC(=O)OC3CCCCC3)o2)n1 20 µM [activator, single point], S=C1NCN(Cc2ccco2)CN1CCc1ccccc1 10 µM [activator, partial curve], O=C(COC(=O)/C=C/c1ccc([N+](=O)[O-])cc1)NCc1cccs1 0.316 µM [activator, full curve, poor fit], O=C(Cn1cnc2c(nnn2Cc2ccc(Cl)cc2)c1=O)N1CCN(c2ccccc2)CC1 12.6 µM [activator, single point], COc1cccc(N2CN(CCc3ccccc3)CNC2=S)c1 35.5 µM [activator, partial curve], CC(NC(=O)c1ccc2c(c1)N(Cc1cccc(F)c1)C(=O)c1ccccc1S2)c1ccccc1 (centres undefined) 0.562 µM [activator, full curve], NC(=O)c1oc2ccccc2c1NC(=O)c1ccc([N+](=O)[O-])o1 1.58 µM [activator, full curve, poor fit], COc1ccc(NC(=O)CCC2COc3ccccc3O2)c(OC)c1 (centres undefined) 17.8 µM [activator, single point], CN(Cc1ccc2nonc2c1)Cc1nc(Cc2cccc(F)c2)no1 7.08 µM [activator, full curve], CCOC(=O)Nc1ccc(C)cc1NC(=O)OCC 2.24 µM [activator, full curve, poor fit], Cc1cccc(/C(N)=N/OC(=O)COc2ccc(Cl)c(C)c2)c1 3.98 µM [activator, partial curve], N#Cc1cc(NC2CCCC2)c([N+](=O)[O-])cc1C#N 35.5 µM [activator, single point], COc1ccc(C(=O)NC(=S)NC2CCSC2=O)cc1 (centres undefined) 14.1 µM [activator, partial curve], Cc1nc2c(C(=O)NCc3ccccc3)cnn2c(C)c1Cc1ccc(F)cc1 31.6 µM [activator, single point], CCOC(=O)c1c(C(F)(F)C(F)(F)C(F)(F)C(F)(F)F)n[nH]c1C 31.6 µM [activator, single point], COc1cccc(CNC(=O)C2CCN(C(=O)N3CCOc4ccc(Cl)cc43)CC2)c1OC 6.31 µM [activator, partial curve, poor fit], Cc1ccc(CNC(=O)CSc2nc(=O)n3ccc(C)cc3n2)cc1 0.355 µM [activator, full curve, poor fit], Cc1ccc(/C=C/C(=O)O)cc1S(=O)(=O)N1CCCc2ccccc21 12.6 µM [activator, single point], CC1=C(C(=O)N(C)C)CC(CC(=O)NCc2cccc3ccccc23)C(=O)N1CCC1=CCCCC1 (centres undefined) 20 µM [activator, partial curve], Cc1ccc(Cl)cc1Nc1nc2ccccc2c2nncn12 5.62 µM [activator, full curve], Cc1cccc(N2CCN(C(=O)Cn3cccc3C(=O)c3ccccc3)CC2)c1C 35.5 µM [activator, partial curve, poor fit], C[C@@H]1CC=C[C@H]2[C@H]1C(=O)N(Cc1ccccc1)[C@H]2c1ccc2ccccc2c1 35.5 µM [activator, single point], Cc1nn(Cc2ccc(Cl)c(Cl)c2)c(C)c1NC(=O)c1cc(C2CC2)on1 20 µM [activator, single point]
